Assay results reported in paper PMC4336329 (PLoS ONE, 2015).
The whole screen tested about 310,000 compounds, of which about 2,200 (0.71%) showed an effect of 50% or more. Effects have a minus sign here. The list shows a part of the results.

target: human ether-à-go-go-related gene (hERG) potassium channel (human, UniProt Q12809); assay: primary screen, population patch clamp on CHO cells stably expressing hERG
Sequence (Q12809 whole entry, looked up): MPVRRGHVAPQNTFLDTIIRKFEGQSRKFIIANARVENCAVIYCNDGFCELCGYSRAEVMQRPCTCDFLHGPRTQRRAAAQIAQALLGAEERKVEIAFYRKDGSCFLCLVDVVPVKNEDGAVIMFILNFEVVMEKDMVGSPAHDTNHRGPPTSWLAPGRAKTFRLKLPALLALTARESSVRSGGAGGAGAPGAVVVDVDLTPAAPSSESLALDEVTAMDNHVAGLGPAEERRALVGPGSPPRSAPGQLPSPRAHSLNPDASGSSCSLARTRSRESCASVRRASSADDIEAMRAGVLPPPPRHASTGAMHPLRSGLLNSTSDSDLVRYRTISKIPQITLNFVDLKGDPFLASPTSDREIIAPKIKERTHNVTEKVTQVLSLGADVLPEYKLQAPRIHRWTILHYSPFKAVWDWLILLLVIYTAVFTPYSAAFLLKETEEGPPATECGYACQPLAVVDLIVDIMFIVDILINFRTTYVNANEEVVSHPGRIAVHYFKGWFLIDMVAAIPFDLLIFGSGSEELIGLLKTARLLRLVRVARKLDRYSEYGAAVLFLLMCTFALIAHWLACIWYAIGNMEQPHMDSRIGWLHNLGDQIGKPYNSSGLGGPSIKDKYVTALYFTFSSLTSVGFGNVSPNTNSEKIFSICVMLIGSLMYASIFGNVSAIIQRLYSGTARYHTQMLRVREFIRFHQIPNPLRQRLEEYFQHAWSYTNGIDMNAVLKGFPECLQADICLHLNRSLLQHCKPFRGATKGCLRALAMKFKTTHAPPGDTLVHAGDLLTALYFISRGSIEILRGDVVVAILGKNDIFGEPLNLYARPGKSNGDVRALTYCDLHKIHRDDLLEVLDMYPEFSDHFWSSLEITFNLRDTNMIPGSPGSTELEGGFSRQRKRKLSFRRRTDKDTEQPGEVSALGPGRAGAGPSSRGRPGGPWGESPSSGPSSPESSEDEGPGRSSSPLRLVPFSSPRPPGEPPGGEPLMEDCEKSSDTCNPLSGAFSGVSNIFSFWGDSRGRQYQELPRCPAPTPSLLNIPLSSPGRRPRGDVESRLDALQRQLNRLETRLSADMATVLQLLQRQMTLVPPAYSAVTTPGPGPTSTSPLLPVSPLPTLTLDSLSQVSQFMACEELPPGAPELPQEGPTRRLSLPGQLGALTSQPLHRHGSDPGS

| SMILES | hERG current change (%, negative = inhibition) at 1uM |
| --- | --- |
| COc1ccc(C(=O)N/N=C\c2coc3ccc(Cl)cc3c2=O)cc1 | 10.8% |
| O=C(COC(=O)c1cc([N+](=O)[O-])ccc1N1CCOCC1)Nc1ccc(Cl)cc1 | 15.2% |
| CCCn1c(C)cc(C(=O)COc2ncnc3sccc23)c1C | 6.19% |
| O=C(c1cnn2c(C(F)F)cc(-c3ccccc3)nc12)N1CCCCC1c1cccnc1 (stereo not drawn) | -9.47% |
| CC(NC(=S)NC1CCCCC1)c1ccccc1 (stereo not drawn) | 9.39% |
| N#Cc1cnc(NN)nc1 | 13.6% |
| COC(=O)c1ccc(CSc2cc(C)c3ccccc3n2)o1 | 11.4% |
| Clc1ccc(-c2nc3ncccn3c2Cl)cc1 | 6.72% |
| Cc1cc(C)cc(-n2ccn(CC(=O)NCCc3ccccc3)c(=O)c2=O)c1 | 11.2% |
| O=C(c1ccc(Cl)cc1)C1CCN(C(=O)c2ccc(F)cc2)CC1 | 1.39% |
| COc1ccc(CNC(=O)CSc2nnnn2-c2ccccc2)cc1 | -8.26% |
| CN(Cc1ccccc1)C(=O)N1CCOCC1 | 17.7% |
| O=C(OCC#CCSc1nnc(-c2cccc3ccccc23)o1)c1cccs1 | 7.2% |
| O=c1c2ccccc2nc(CSc2ncnc3nc[nH]c23)n1-c1cccc(C(F)(F)F)c1 | -2.15% |
| O=[N+]([O-])c1cc([N+](=O)[O-])c(N2CCOCC2)cc1NCc1ccccc1 | 11.4% |
| COC(OC)c1nc(SCC(=O)Nc2cccc(Cl)c2)ncc1C(=O)O | 18.2% |
| NC(=O)CC(NC(=O)c1ccccc1)c1ccc(N2CCN(c3ccccn3)CC2)c([N+](=O)[O-])c1 (stereo not drawn) | 7.65% |
| C=CCNc1oc(-c2cccs2)nc1C#N | 4.54% |
| Cc1ccccc1OCCSc1nnc(C)n1-c1ccccc1 | 3.75% |
| Cc1ccc(NC(=O)CN2C(=O)CSc3ccc(S(=O)(=O)N4CCCCC4)cc32)cc1 | 9.42% |
| O=C(NCCN1CCOCC1)c1cnn2c1NC(c1cccs1)CC2C(F)(F)F (stereo not drawn) | 9.71% |
| O=C(CSc1ncnc2ccccc12)c1ccc2c(c1)OCCO2 | 3.24% |

| SMILES | hERG current change (%, negative = inhibition) at 1uM |
| --- | --- |
| CCC(=O)OCCn1c(Br)nc2c1c(=O)[nH]c(=O)n2C | -4.46% |
| COc1ccc(S(=O)(=O)N(CC(=O)N/N=C/c2ccc(C(=O)O)cc2)Cc2ccccc2)cc1OC | 9.77% |
| COC(=O)COc1cc(Cl)c(C=O)cc1OC | 15.5% |
| CCOc1ccc(C(C)=O)cc1CSc1nc2nc(C)cc(C)n2n1 | 7.97% |
| O=C(N/N=C/c1ccc(Cl)cc1)c1cc2c(s1)-c1ccccc1CC2 | 6.26% |
| COP(=O)(OC)c1nc(-c2cccc3ccccc23)oc1NCc1ccccc1 | 6.32% |
| Cc1coc(NC(=O)CSc2nc(-c3ccncc3)cc(C(F)(F)F)c2C#N)n1 | 10.8% |
| CN(C)c1ccc(CNc2ccc3c(c2)ncn3C)cc1 | -0.566% |
| COc1ccc(CN(C)C(=O)c2cc(-c3ccccc3)nc3ccc(C)cc23)c(OC)c1OC | 13.1% |
| O=C(O)CN1C(=O)CC(Cc2ccc(Cl)cc2)C1=O (stereo not drawn) | 5.16% |
| CCOc1cc2c(cc1/C=C/C(=O)O)OC(C)C2 (stereo not drawn) | 6.95% |
| CCn1nnnc1SCC(=O)N1CCc2ccccc21 | 8.56% |
| CCOc1cc(/C=C2\C(=O)ON=C2C)ccc1OCc1ccccc1 | 13.2% |
| COc1cc(CN(C(=O)c2cc3ccccc3oc2=O)C2CCS(=O)(=O)C2)cc(OC)c1OC (stereo not drawn) | 3.48% |
| O=C(Nc1ccccc1)Nc1nc2ccccc2s1 | 10.5% |
| O=C(CCN1C(=O)c2ccccc2C1=O)Oc1ccc2ccccc2c1 | 8.07% |
| O=C(Cc1ncc(C(F)(F)F)cc1Cl)NCCc1ccccc1 | 9.92% |
| C#Cc1ccc([C@H]2C=C(C(=O)OCC=C)O[C@@H](OCCCCO)C2)cc1 | 13.9% |
| Nc1nnc(-c2cn(-c3ccccc3)nc2-c2ccccc2)o1 | 5.27% |
| Cc1cccc(-n2c(SCC(=O)NCc3ccco3)nnc2-c2ccco2)c1 | -46% |
| Cc1ccc2[nH]c3c(c2c1)CCNC3=O | 6.12% |
| O=C(CSc1nc2ccccc2c(=O)n1-c1ccc(OC(F)F)cc1)NCc1cccs1 | -0.662% |

| SMILES | hERG current change (%, negative = inhibition) at 1uM |
| --- | --- |
| CN1CCN(c2ccc(CNC(=O)c3ccc4c(c3)OCCO4)cc2)CC1 | -1.61% |
| Cc1cc(C)nc(N(C#N)CC(=O)N(c2ccccc2)C(C)C)n1 | 12.9% |
| O=C(COC(=O)c1ccc(=O)[nH]c1)Nc1cccc(S(=O)(=O)N2CCOCC2)c1 | 11.1% |
| CCOC(=O)C1CCCN(S(=O)(=O)c2ccc3c(c2)C(C)(C)C(=O)N3C)C1 (stereo not drawn) | 7.64% |
| CC(C)OC(=O)c1cc2c(ccn2C)n1CC(=O)N1CCC(Cc2ccccc2)CC1 | 6.23% |
| COCc1ccc(C(=O)N2CCN(CC(=O)N3CCCC3)CC2)cc1 | -2.37% |
| COc1ccc(C(=O)NCc2cccnc2)cc1S(=O)(=O)N1CCCc2ccccc21 | 0.682% |
| CCOC(=O)c1c(NC(=O)CCNCc2ccco2)sc2c1CCC2.O=C(O)C(=O)O | 2.71% |
| CCOC(=O)CNc1ccc2c(c1)OCO2 | 17.2% |
| CC(C)(C)c1cc(P(=O)(c2ccccc2)c2ccccc2)ccc1O | 3.75% |
| Cc1n[nH]c(C)c1S(=O)(=O)N1CCCC(C(=O)NCc2ccc(F)cc2)C1 (stereo not drawn) | 6.29% |
| CC(=O)OCC(OC(C)=O)C(OC(C)=O)C(OC(C)=O)C(=O)Nc1cccc(C)c1 (stereo not drawn) | 20.4% |
| CC(C)[C@H](NC(=O)C1CCCC1)c1nc2ccccc2[nH]1 | 13.4% |
| Cc1cc(Br)ccc1NC(=O)c1ccc(-n2cncn2)c([N+](=O)[O-])c1 | 12.4% |
| Cc1sc2ncn(CC(=O)N3CCN(c4ccccc4F)CC3)c(=O)c2c1S(=O)(=O)N1CCOCC1 | 6.78% |
| CC(C(=O)OCc1nnc(-c2ccccc2)o1)N1C(=O)c2ccccc2C1=O (stereo not drawn) | -13.6% |
| CCN(CC)c1ccc(S(=O)(=O)N(CC)CC)cc1NC(=O)c1cccnc1 | -3.72% |
| CCOC(=O)c1cc(C#N)c(SCc2cccc3ccccc23)nc1C | 6.07% |
| O=C(Nc1ccc2oc(Cc3ccc(Cl)cc3)nc2c1)c1cccnc1 | -0.226% |
| O=c1cc(-c2ccccc2Cl)oc2c(NS(=O)(=O)c3ccccc3C(F)(F)F)ccc(O)c12 | 11.6% |
| CCOc1nc(N2CCCCC2)nc(-n2cc(-c3ccccc3)nn2)n1 | 11% |
| Cc1c([N+](=O)[O-])cc(C(=O)NCc2ccc(F)cc2)cc1[N+](=O)[O-] | -31.7% |

| SMILES | hERG current change (%, negative = inhibition) at 1uM |
| --- | --- |
| CC(C)Oc1ccccc1NC(=O)CSc1nc2ccccc2c(=O)n1C | 3.54% |
| Cc1ccccc1NC(=O)CSCCN1C(=O)c2ccccc2C1=O | 4.91% |
| O=C(c1cc(-c2ccc(Cl)c(Cl)c2)on1)N1CCCCCC1 | 1.99% |
| Cc1ccc(C2=N/C(=C/N3CCOCC3)C(=O)O2)cc1 | 5.48% |
| COC(=O)c1ccccc1NC(=O)CN(c1ccc(OC)cc1)S(C)(=O)=O | 5.04% |
| CCN1CCN(C(=O)c2cc(-c3cccnc3)nc3ccc(Br)cc23)CC1 | 4.57% |
| COc1cccc(NC(=O)CCC(=O)Nc2cccc(OC)c2)c1 | 6.48% |
| COc1cccc(N/C(SC)=C(/C#N)C(=O)NCc2cccs2)c1 | 3.99% |
| COc1ccc(CCC(=O)NCCOc2ccc(C)cc2)cc1 | 8.63% |
| O=C(NC1CCCCCCC1)c1ccc(F)cc1 | 14.9% |
| COc1ccc(N2CCN(CCCNC(=O)CCC(=O)N3CCOc4ccc(Cl)cc43)CC2)cc1 | -32.8% |
| Cc1ccc2c(C)c(C(=O)N(Cc3cccs3)C3CCS(=O)(=O)C3)oc2c1 (stereo not drawn) | 6.95% |
| C=CCn1c(O)c(N=NC(=O)CNC(=O)/C=C/c2ccco2)c2ccccc21 | -15.5% |
| CCOC(=O)Cn1nc(/C=C/c2ccc(C(C)C)cc2)ccc1=O | 12.2% |
| O=C(CCNC(=O)c1ccccc1Cl)NCC12CC3CC(CC(C3)C1)C2 | 12.7% |
| Cc1ccc([C@@H]2[C@@H]3C(=O)N(C)C(=O)[C@@H]3[C@]3(C)C(=O)N(CCO)CC(=O)N23)o1 | -19.9% |
| CC1CCCN(C(=O)CN2C(=O)C(C)Oc3ccccc32)C1 (stereo not drawn) | 9.82% |
| CN1CCN(/N=C/c2c(O)n(Cc3ccc(F)cc3)c(=O)[nH]c2=O)CC1 | 10.4% |
| COC(=O)Cn1c(=NC(=O)CCS(=O)(=O)c2ccccc2)sc2c(OC)ccc(OC)c21 | 12.9% |
| CCOc1ccccc1NC(=O)CN1C(=O)CSC(C)C1=O (stereo not drawn) | 2.34% |
| COc1ccccc1N1CCN(C(=O)CSc2nnc3n2C(C)(C)Cc2ccccc2-3)CC1 | -5.9% |
